# According to a collection of fitness landscapes (doi:10.1016/j.celrep.2020.107928):
# Over roughly 81,000 sequences, “one-hybrid fitness for binding NBS DNA” has its median near -0.1; the highest 2% begin near 0.36. The list shows a part of the results.
# B1: Caulobacter ParB omega fusion; a variant is named by its letters at X, in order, B8GW30 (parent)
# chain: MESVVVGEPGMSEGRRGLGRGLSALLGEVDAAPAQAPGEQLGGSREAPIEILQRNPDQPRRTFREEDLEDLSNSIREKGVLQPILVRPSPDTAGEYQIVAGERAWRAAQRAGLKTVPIMVRELDDLAVLEIGIIENVQRADLNVLEEALSYKVLMEKFERTQENIAQTIGKSXSHVANXMRLLXLPDEVQSYLVSGELTAXHARAIAAAADPVALAKQIIEGGLSVRETEALARKAPNLSAGKSKGGRPPRVKDTDTQALESDLSSVLGLDVSIDHRGSTGTLTITYATLEQLDDLCNRLTRGI
# Variants of: B1
# Assay: one-hybrid fitness for binding NBS DNA (the Noc-binding site; scaled: cognate 1, non-cognate 0); higher = stronger binding
# Details: with NBS DNA site
# Method in brief: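 The reporter was HIS3, with the binding site 19 bp from the promoter, in E. coli USO used for bacterial one-hybrid selection of Caulobacter ParB libraries with four specificity codons randomised. Growth was on M9 lacking histidine, with 0.1 mM IPTG and 5 mM 3-AT, for 48 hours at 37°C. Illumina sequencing covered plasmids before and after selection; three replicate libraries were pooled and variants with under 10 reads dropped. A fitness score is the log change in variant-to-wild-type read ratio, rescaled to the cognate and non-cognate references.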
row,Variant,one-hybrid fitness for binding NBS DNA
1,EFSS,≤ 0.2
2,TARI,≤ 0.2
3,PHYG,≤ 0.2
4,NAGS,≤ 0.2
5,DGCF,≤ 0.2
6,DPYS,≤ 0.2
7,QDGF,≤ 0.2
8,LMLD,≤ 0.2
9,YQMN,≤ 0.2
10,QNTV,≤ 0.2
11,HHCV,≤ 0.2
12,EVHS,≤ 0.2
13,TTDY,≤ 0.2
14,TKDQ,≤ 0.2
15,RRTT,0.716
16,IPEG,≤ 0.2
17,NCDG,≤ 0.2
18,SMPP,≤ 0.2
19,EMYW,≤ 0.2
20,ILLY,≤ 0.2
21,GIEA,≤ 0.2
22,NITW,≤ 0.2
23,PENL,≤ 0.2
24,EFYS,≤ 0.2

row,Variant,one-hybrid fitness for binding NBS DNA
1,QKNI,≤ 0.2
2,CYSH,≤ 0.2
3,RTQI,≤ 0.2
4,MDNV,≤ 0.2
5,AIYS,≤ 0.2
6,VPGW,≤ 0.2
7,YPSA,≤ 0.2
8,SRMY,≤ 0.2
9,VSPG,≤ 0.2
10,QHLM,≤ 0.2
11,IPPD,≤ 0.2
12,SVYE,≤ 0.2
13,YACG,≤ 0.2
14,SLAS,≤ 0.2
15,TIRD,≤ 0.2
16,VMIL,≤ 0.2
17,PVRP,≤ 0.2
18,RSGY,≤ 0.2
19,NASP,≤ 0.2
20,WNIT,≤ 0.2
21,TQYW,≤ 0.2
22,KWDG,≤ 0.2
23,PYYD,≤ 0.2
24,TVTG,≤ 0.2

row,Variant,one-hybrid fitness for binding NBS DNA
1,FGMS,≤ 0.2
2,TPCN,≤ 0.2
3,FSTR,≤ 0.2
4,FMDS,≤ 0.2
5,HSKL,≤ 0.2
6,LHWG,≤ 0.2
7,CMVY,≤ 0.2
8,THSF,≤ 0.2
9,TQRS,≤ 0.2
10,LLTA,≤ 0.2
11,CRNH,≤ 0.2
12,PWIT,≤ 0.2
13,KTHC,≤ 0.2
14,ASCT,≤ 0.2
15,QNQC,≤ 0.2
16,QNHK,≤ 0.2
17,NCKC,≤ 0.2
18,PSIC,≤ 0.2
19,AVNA,≤ 0.2
20,ASPS,≤ 0.2
21,PPGS,≤ 0.2
22,QEHN,≤ 0.2
23,PNLM,≤ 0.2
24,KCKG,≤ 0.2

row,Variant,one-hybrid fitness for binding NBS DNA
1,VMNR,≤ 0.2
2,FLTC,≤ 0.2
3,TAAG,≤ 0.2
4,DRLI,≤ 0.2
5,LKMV,≤ 0.2
6,SRPV,≤ 0.2
7,REPY,≤ 0.2
8,RSYR,0.381
9,KFMR,≤ 0.2
10,IGPC,≤ 0.2
11,ACFG,≤ 0.2
12,MNKT,≤ 0.2
13,LRMH,≤ 0.2
14,GCLS,≤ 0.2
15,AHKG,≤ 0.2
16,GLNA,≤ 0.2
17,TNLK,≤ 0.2
18,KITT,≤ 0.2
19,QSWR,0.365
20,QRRV,0.574
21,GQKS,≤ 0.2
22,KQRY,≤ 0.2
23,VQTN,≤ 0.2
24,WIYT,≤ 0.2

row,Variant,one-hybrid fitness for binding NBS DNA
1,FFRM,≤ 0.2
2,LPCT,≤ 0.2
3,ITSG,≤ 0.2
4,WVYS,≤ 0.2
5,WLLV,≤ 0.2
6,TAKH,≤ 0.2
7,TTTR,≤ 0.2
8,YVNR,≤ 0.2
9,CRFK,≤ 0.2
10,VMHR,≤ 0.2
11,DYQV,≤ 0.2
12,HKHS,≤ 0.2
13,MNGC,≤ 0.2
14,AKSE,≤ 0.2
15,SLKY,≤ 0.2
16,YLHC,≤ 0.2
17,LHGR,≤ 0.2
18,ACYS,≤ 0.2
19,RAFV,≤ 0.2
20,PTDR,≤ 0.2
21,SFKS,≤ 0.2
22,QIDW,≤ 0.2
23,CCDG,≤ 0.2
24,HLSS,≤ 0.2

row,Variant,one-hybrid fitness for binding NBS DNA
1,VVEW,≤ 0.2
2,SATW,≤ 0.2
3,SLVT,≤ 0.2
4,PFQC,≤ 0.2
5,VLWC,≤ 0.2
6,AGDT,≤ 0.2
7,SSGE,≤ 0.2
8,LMEK,≤ 0.2
9,KRNV,≤ 0.2
10,WCRG,≤ 0.2
11,QSCI,≤ 0.2
12,ANRC,≤ 0.2
13,RLPL,≤ 0.2
14,RFQA,≤ 0.2
15,LDTR,≤ 0.2
16,TMSA,≤ 0.2
17,RKLE,≤ 0.2
18,HQSH,≤ 0.2
19,AWCR,≤ 0.2
20,DNTH,≤ 0.2
21,EVAA,≤ 0.2
22,LKAL,≤ 0.2
23,PPMR,≤ 0.2
24,HQSV,≤ 0.2

row,Variant,one-hybrid fitness for binding NBS DNA
1,VLDG,≤ 0.2
2,EWNT,≤ 0.2
3,GRIA,≤ 0.2
4,PNSY,≤ 0.2
5,PPAY,≤ 0.2
6,SHFW,≤ 0.2
7,VRNH,≤ 0.2
8,LFHL,≤ 0.2
9,GHYS,≤ 0.2
10,SVPK,≤ 0.2
11,QHFT,0.312
12,LWNC,≤ 0.2
13,QFNA,≤ 0.2
14,YEDG,≤ 0.2
15,YTIY,≤ 0.2
16,PWGA,≤ 0.2
17,PAGH,≤ 0.2
18,HNQR,≤ 0.2
19,PVVL,≤ 0.2
20,TQSV,≤ 0.2
21,TSHW,≤ 0.2
22,TSVC,≤ 0.2
23,CRGD,≤ 0.2
24,NWIC,≤ 0.2

row,Variant,one-hybrid fitness for binding NBS DNA
1,LCPA,≤ 0.2
2,VAPQ,≤ 0.2
3,SSGS,≤ 0.2
4,RWTH,≤ 0.2
5,SDAC,≤ 0.2
6,YQWG,≤ 0.2
7,WGLC,≤ 0.2
8,NLGM,≤ 0.2
9,YTWF,≤ 0.2
10,RYAD,≤ 0.2
11,MGGQ,≤ 0.2
12,IRKH,0.257
13,KSWV,≤ 0.2
14,QAYR,0.464
15,HLVA,≤ 0.2
16,HGKV,≤ 0.2
17,LCKK,≤ 0.2
18,ACYG,≤ 0.2
19,KWTI,≤ 0.2
20,CFDS,≤ 0.2
21,CICR,≤ 0.2
22,AKRA,≤ 0.2
23,PLSP,≤ 0.2
24,TNWG,≤ 0.2

row,Variant,one-hybrid fitness for binding NBS DNA
1,PLAW,≤ 0.2
2,PLDW,≤ 0.2
3,ELCC,≤ 0.2
4,RRLE,≤ 0.2
5,TAAF,≤ 0.2
6,THLG,≤ 0.2
7,PGSV,≤ 0.2
8,WRST,≤ 0.2
9,HRGF,≤ 0.2
10,YYLG,≤ 0.2
11,KENR,≤ 0.2
12,REGT,≤ 0.2
13,RRNW,≤ 0.2
14,LTGY,≤ 0.2
15,SQTF,≤ 0.2
16,SNCT,≤ 0.2
17,LQNG,≤ 0.2
18,LVDR,≤ 0.2
19,HPHM,≤ 0.2
20,LIGT,≤ 0.2
21,QWIA,≤ 0.2
22,REPP,≤ 0.2
23,VQTC,≤ 0.2
24,GDVC,≤ 0.2

row,Variant,one-hybrid fitness for binding NBS DNA
1,FNLR,≤ 0.2
2,VLVV,≤ 0.2
3,TFIW,≤ 0.2
4,MHTH,≤ 0.2
5,TTRD,≤ 0.2
6,RHRA,0.325
7,RFVD,≤ 0.2
8,EVPT,≤ 0.2
9,QCQF,≤ 0.2
10,LHYT,≤ 0.2
11,GQTK,≤ 0.2
12,SPSC,≤ 0.2
13,RHWC,≤ 0.2
14,SLQC,≤ 0.2
15,NWGC,≤ 0.2
16,RKNP,≤ 0.2
17,KPCG,≤ 0.2
18,ENFG,≤ 0.2
19,IHMG,≤ 0.2
20,WVVR,≤ 0.2
21,FAKY,≤ 0.2
22,NIHY,≤ 0.2
23,LATL,≤ 0.2
24,VWPM,≤ 0.2

row,Variant,one-hybrid fitness for binding NBS DNA
1,QLAA,≤ 0.2
2,YWQT,≤ 0.2
3,QFPN,≤ 0.2
4,QQAI,≤ 0.2
5,LQAT,≤ 0.2
6,IGLK,≤ 0.2
7,RHFM,≤ 0.2
8,RCTY,≤ 0.2
9,QSCF,≤ 0.2
10,SRRI,≤ 0.2
11,TAVH,≤ 0.2
12,HSQS,≤ 0.2
13,NSYH,≤ 0.2
14,NKGS,≤ 0.2
15,HTCC,≤ 0.2
16,QCVV,≤ 0.2
17,YETR,≤ 0.2
18,RVCL,≤ 0.2
19,RVDN,≤ 0.2
20,RCNY,0.221
21,ANKS,≤ 0.2
22,ILSF,≤ 0.2
23,LLLE,≤ 0.2
24,LDHI,≤ 0.2

row,Variant,one-hybrid fitness for binding NBS DNA
1,RQSC,≤ 0.2
2,CCCS,≤ 0.2
3,PSYD,≤ 0.2
4,SGIH,≤ 0.2
5,QQNG,≤ 0.2
6,RYKL,≤ 0.2
7,RIIR,≤ 0.2
8,MNRV,≤ 0.2
9,AHWD,≤ 0.2
10,NRYN,≤ 0.2
11,GDWR,≤ 0.2
12,TISV,≤ 0.2
13,ADNH,≤ 0.2
14,IYVS,≤ 0.2
15,ETQI,≤ 0.2
16,CTPR,≤ 0.2
17,IWMS,≤ 0.2
18,CPPY,≤ 0.2
19,RRII,≤ 0.2
20,CVTW,≤ 0.2
21,QSTD,≤ 0.2
22,FTYG,≤ 0.2
23,WLAY,≤ 0.2
24,GTED,≤ 0.2

row,Variant,one-hybrid fitness for binding NBS DNA
1,PQFR,≤ 0.2
2,VREI,≤ 0.2
3,WGKR,≤ 0.2
4,PAGC,≤ 0.2
5,FLDR,≤ 0.2
6,YMCG,≤ 0.2
7,SLKN,≤ 0.2
8,LVTL,≤ 0.2
9,QQAE,≤ 0.2
10,AWAT,≤ 0.2
11,SLRC,≤ 0.2
12,CCVV,≤ 0.2
13,CVDK,≤ 0.2
14,APLS,≤ 0.2
15,DLRV,≤ 0.2
16,WRSS,≤ 0.2
17,SNGG,≤ 0.2
18,NEKN,≤ 0.2
